Measurements taken from the supplement of paper PMC6206098.
± gives the uncertainty stated by the source. Shown are siRNA guide strands that differ only in the seed, positions 2 to 7.

Tests used:
M565 = assay: cell viability relative to lipid-only control; higher = less toxic; details: concentration: 10 nM; 96 h; Mus musculus
Description: (§1)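 Arrayed screen of 4096 siRNA duplexes, each carrying one of all possible 6mer seeds at guide-strand positions 2-7 in a fixed neutral 19mer scaffold (constant flanks: U at position 1, then ACAUGUAAACCA, plus a 3' AA overhang). The passenger strand is 2'-O-methylated at positions 1-2 so only the guide strand loads into RISC. Duplexes were reverse-transfected at 10 nM with RNAiMAX in triplicate in 384-well plates; viability was read by CellTiter-Glo ATP content 96 h after transfection. Values are % viability normalised to lipid-only wells (HeyA8, H460, M565) or to siNT1 (3LL).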

H460 = assay: as above; details: concentration: 10 nM; 96 h; Homo sapiens
Description: as §1

HeyA8 = assay: as above; details: concentration: 10 nM; 96 h; Homo sapiens
Description: as §1

3LL = assay: cell viability relative to siNT1 control; HeyA8 human ovarian and H460 human lung cancer; M565 mouse liver and 3LL mouse lung cancer; siNT1 is a non-toxic control siRNA; higher = less toxic; details: concentration: 10 nM; 96 h; Mus musculus
Description: as §1
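Throughout, for cell viability relative to lipid-only control: reverse lipid transfection in 384-well plates, in triplicate, of duplexes on a non-toxic 19mer backbone with passenger strand 2′-O-methylated at positions 1 and 2, luminescence viability read-out.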
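Throughout, for cell viability relative to siNT1 control: Luminescence-based viability of cells reverse transfected in 384-well plates with lipid-complexed siRNAs built on a non-toxic 19mer backbone whose passenger strand carries 2′-O-methyl groups at positions 1 and 2, triplicates.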

Sequence	cell viability (M565) [%]	cell viability (H460) [%]	cell viability (HeyA8) [%]	cell viability (3LL) [%]
UAAAUGAACAUGUAAACCAAA	110 ± 13	62.6 ± 5.2	99.4 ± 2.7	111 ± 17
UAAAUGCACAUGUAAACCAAA	19.9 ± 3.7	29.7 ± 1.2	31.2 ± 4.9	30 ± 7.1
UAAAUGGACAUGUAAACCAAA	54.7 ± 6.5	66.4 ± 4.1	88.9 ± 4.7	85.6 ± 6.2
UAAAUGUACAUGUAAACCAAA	66.7 ± 6.1	75 ± 11	81.8 ± 5.4	85.2 ± 9.8
UAAAUUAACAUGUAAACCAAA	103 ± 14	80.8 ± 10	97.1 ± 6	112 ± 12
UAAAUUCACAUGUAAACCAAA	104 ± 9.7	60 ± 1.6	89.7 ± 6.9	99.7 ± 10
UAAAUUGACAUGUAAACCAAA	97.3 ± 17	76 ± 9.3	101 ± 4.3	118 ± 16
UAAAUUUACAUGUAAACCAAA	105 ± 12	74.1 ± 8.5	99.3 ± 9.6	117 ± 11
UAACAAAACAUGUAAACCAAA	86.8 ± 20	60.8 ± 1	104 ± 6.9	91.5 ± 8.4
UAACAACACAUGUAAACCAAA	82.7 ± 8.8	54.4 ± 4.5	82.3 ± 14	86.7 ± 11
UAACAAGACAUGUAAACCAAA	75.2 ± 6.9	57.6 ± 9.8	88.5 ± 7.6	95.8 ± 8.1
UAACAAUACAUGUAAACCAAA	75.8 ± 5	62.2 ± 8.8	92.9 ± 8	91.9 ± 7.6
UAACACAACAUGUAAACCAAA	67.34 ± 0.63	49.1 ± 8.8	92.7 ± 15	91.2 ± 3.8
UAACACCACAUGUAAACCAAA	49.2 ± 3.7	43.2 ± 6.1	28.1 ± 0.83	54.4 ± 9.4
UAACACGACAUGUAAACCAAA	73.9 ± 9.5	48.9 ± 10	92.8 ± 8.1	95.9 ± 9.1
UAACACUACAUGUAAACCAAA	69.7 ± 6.2	54.5 ± 3.9	61.6 ± 5.4	63.2 ± 10
UAACAGAACAUGUAAACCAAA	70.3 ± 6.2	69.8 ± 8	96.3 ± 2.3	95 ± 11
UAACAGCACAUGUAAACCAAA	46.4 ± 4.2	37.8 ± 9.9	28.2 ± 1.6	56.1 ± 2.4
UAACAGGACAUGUAAACCAAA	56.6 ± 3.6	76.8 ± 16	66.2 ± 5.2	83.8 ± 12
UAACAGUACAUGUAAACCAAA	57.1 ± 3	63.7 ± 4.7	40.7 ± 12	68.7 ± 7.2
UAACAUAACAUGUAAACCAAA	89.5 ± 9.9	55.9 ± 9.7	91.4 ± 14	91.9 ± 9.7
UAACAUCACAUGUAAACCAAA	64.2 ± 9.1	35.8 ± 7	5.87 ± 0.41	32.1 ± 9.7
UAACAUGACAUGUAAACCAAA	79.5 ± 12	62.4 ± 6.9	94.3 ± 13	93.3 ± 12
UAACAUUACAUGUAAACCAAA	77 ± 7	61.4 ± 9.1	77.4 ± 7.5	89.8 ± 6.7
UAACCAAACAUGUAAACCAAA	69.3 ± 8.9	72.7 ± 6.8	95 ± 16	93.3 ± 3.6
UAACCACACAUGUAAACCAAA	46.6 ± 6.5	72.8 ± 14	68 ± 1.4	74.5 ± 12
UAACCAGACAUGUAAACCAAA	20.5 ± 4.8	80.6 ± 12	98 ± 3.2	87 ± 11
UAACCAUACAUGUAAACCAAA	45.5 ± 5.4	63.3 ± 7.9	78.5 ± 1.3	73.5 ± 7.3
